# Some of the results follow.
# Tests used:
# Assay in all cases: glycan array binding signal (z-score within array); higher = stronger binding
# Conditions in all cases: glycan notation: IUPAC condensed, linker removed
# [1] = target: GlcNAc(b1-3)Gal(b1-4)GlcNAc(b1-3)Gal(b1-4)GlcNAc(b1-2)[GlcNAc(b1-3)Gal(b1-4)GlcNAc(b1-3)Gal(b1-4)GlcNAc(b1-6)]Man(a1-6)[GlcNAc(b1-3)Gal(b1-4)GlcNAc(b1-3)Gal(b1-4)GlcNAc(b1-2)Man(a1-3)]Man(b1-4)GlcNAc(b1-4)[Fuc(a1-6)]GlcNAc
# Outline: (§1)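 Glycan array data came from 3228 arrays in the Consortium for Functional Glycomics database, and only arrays with an available protein sequence were kept. Glycan names were put into IUPAC-condensed notation, and columns mapping to the same glycan were averaged. The binding signal is a within-array Z-score, averaged across arrays of one protein sequence run at different concentrations or buffers and across linkers. A negative Z-score can be read as non-binding.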
# [2] = target: GlcNAc(b1-3)Gal(b1-4)GlcNAc(b1-3)Gal(b1-4)GlcNAc(b1-3)Gal(b1-4)GlcNAc(b1-2)Man(a1-3)[GlcNAc(b1-3)Gal(b1-4)GlcNAc(b1-3)Gal(b1-4)GlcNAc(b1-3)Gal(b1-4)GlcNAc(b1-2)Man(a1-6)]Man(b1-4)GlcNAc(b1-4)GlcNAc
# Outline: as §1
# [3] = target: GlcNAc(b1-3)Gal(b1-4)GlcNAc(b1-3)Gal(b1-4)GlcNAc(b1-3)Gal(b1-4)GlcNAc(b1-2)Man(a1-3)[GlcNAc(b1-3)Gal(b1-4)GlcNAc(b1-3)Gal(b1-4)GlcNAc(b1-3)Gal(b1-4)GlcNAc(b1-2)Man(a1-6)]Man(b1-4)GlcNAc(b1-4)[Fuc(a1-6)]GlcNAc
# Outline: as §1
# [4] = target: GlcNAc(b1-3)Gal(b1-4)GlcNAc(b1-3)Gal(b1-4)GlcNAc(b1-3)Gal(b1-4)GlcNAc(b1-2)[GlcNAc(b1-3)Gal(b1-4)GlcNAc(b1-3)Gal(b1-4)GlcNAc(b1-3)Gal(b1-4)GlcNAc(b1-6)]Man(a1-6)[GlcNAc(b1-3)Gal(b1-4)GlcNAc(b1-3)Gal(b1-4)GlcNAc(b1-3)Gal(b1-4)GlcNAc(b1-2)Man(a1-3)]Man(b1-4)GlcNAc(b1-4)[Fuc(a1-6)]GlcNAc
# Outline: as §1
# [5] = target: GlcNAc(b1-3)Gal(b1-4)GlcNAc(b1-3)Gal(b1-4)GlcNAc(b1-3)Gal(b1-4)GlcNAc(b1-3)Gal(b1-4)GlcNAc(b1-2)Man(a1-3)[GlcNAc(b1-3)Gal(b1-4)GlcNAc(b1-3)Gal(b1-4)GlcNAc(b1-3)Gal(b1-4)GlcNAc(b1-3)Gal(b1-4)GlcNAc(b1-2)Man(a1-6)]Man(b1-4)GlcNAc(b1-4)GlcNAc
# Outline: as §1
# [6] = target: GlcNAc(b1-3)Gal(b1-4)GlcNAc(b1-3)Gal(b1-4)GlcNAc(b1-3)Gal(b1-4)GlcNAc(b1-3)Gal(b1-4)GlcNAc(b1-2)Man(a1-3)[GlcNAc(b1-3)Gal(b1-4)GlcNAc(b1-3)Gal(b1-4)GlcNAc(b1-3)Gal(b1-4)GlcNAc(b1-3)Gal(b1-4)GlcNAc(b1-2)Man(a1-6)]Man(b1-4)GlcNAc(b1-4)[Fuc(a1-6)]GlcNAc
# Outline: as §1
# [7] = target: GlcNAc(b1-3)Gal(b1-4)GlcNAc(b1-3)Gal(b1-4)GlcNAc(b1-3)Gal(b1-4)GlcNAc(b1-3)Gal(b1-4)GlcNAc(b1-2)[GlcNAc(b1-3)Gal(b1-4)GlcNAc(b1-3)Gal(b1-4)GlcNAc(b1-3)Gal(b1-4)GlcNAc(b1-3)Gal(b1-4)GlcNAc(b1-6)]Man(a1-6)[GlcNAc(b1-3)Gal(b1-4)GlcNAc(b1-3)Gal(b1-4)GlcNAc(b1-3)Gal(b1-4)GlcNAc(b1-3)Gal(b1-4)GlcNAc(b1-2)Man(a1-3)]Man(b1-4)GlcNAc(b1-4)[Fuc(a1-6)]GlcNAc
# Outline: as §1
# [8] = target: GlcNAc(b1-3)Gal(b1-4)GlcNAc(b1-3)Gal(b1-4)GlcNAc(b1-3)GalNAc
# Outline: as §1
# [9] = target: GlcNAc(b1-3)Gal(b1-4)GlcNAc(b1-3)GalNAc
# Outline: as §1
# [10] = target: GlcNAc(b1-3)Gal(b1-4)GlcNAc(b1-3)[GlcNAc(b1-3)Gal(b1-4)GlcNAc(b1-3)]GalNAc
# Outline: as §1
# [11] = target: GlcNAc(b1-3)Gal(b1-4)GlcNAc(b1-6)[Gal(b1-3)]GalNAc
# Outline: as §1
# [12] = target: GlcNAc(b1-3)Gal(b1-4)GlcNAc(b1-6)[GlcNAc(b1-3)Gal(b1-3)]GalNAc
# Outline: as §1
# [13] = target: GlcNAc(b1-3)Gal(b1-4)GlcNAc(b1-6)[GlcNAc(b1-3)]Gal(b1-4)GlcNAc
# Outline: as §1
# GlcNAc(b1-3)GalNAc = target: GlcNAc(b1-3)GalNAc
# Outline: as §1
# GlcNAc(b1-3)Man = target: GlcNAc(b1-3)Man
# Outline: as §1
# [14] = target: GlcNAc(b1-3)[GlcNAc(b1-4)][GlcNAc(b1-6)]GlcNAc
# Outline: as §1
# [15] = target: GlcNAc(b1-3)[GlcNAc(b1-6)]Gal(b1-4)GlcNAc
# Outline: as §1
# [16] = target: GlcNAc(b1-3)[GlcNAc(b1-6)]GalNAc
# Outline: as §1
# [17] = target: GlcNAc(b1-4)Gal(b1-4)GlcNAc
# Outline: as §1
# GlcNAc(b1-4)GlcNAc = target: GlcNAc(b1-4)GlcNAc
# Outline: as §1
# [18] = target: GlcNAc(b1-4)GlcNAc(b1-4)GlcNAc
# Outline: as §1
# [19] = target: GlcNAc(b1-4)GlcNAc(b1-4)GlcNAc(b1-4)GlcNAc(b1-4)GlcNAc
# Outline: as §1
# [20] = target: GlcNAc(b1-4)GlcNAc(b1-4)GlcNAc(b1-4)GlcNAc(b1-4)GlcNAc(b1-4)GlcNAc
# Outline: as §1
binder,measurement,setting,value
F17-L (Escherichia coli) (protein) GPDDYVPSQIAVNTSTLPGVVIGPADAHTYPRVIGELAGTSNQYVFNGGAIALMRGKFTPALPKIGSITYTFHQGNSRDSSDFDIYDIGVSGLGIIIGMAGYWPATPLVPINSSGIYIDPVGANTNPNTYNGATASFGARLFVAFVATGRLPNGYITIPTRQLGTILLEAKRTSLNNKGLTAPVMLNGGRIQVQSQTHHHHHH,glycan array binding signal (z-score),[1],0.025
same,glycan array binding signal (z-score),[2],-0.155
same,glycan array binding signal (z-score),[3],-0.016
same,glycan array binding signal (z-score),[4],-0.099
same,glycan array binding signal (z-score),[5],-0.107
same,glycan array binding signal (z-score),[6],-0.09
same,glycan array binding signal (z-score),[7],0.006
same,glycan array binding signal (z-score),[8],-0.232
same,glycan array binding signal (z-score),[9],-0.006
same,glycan array binding signal (z-score),[10],-0.18
same,glycan array binding signal (z-score),[11],-0.163
same,glycan array binding signal (z-score),[12],-0.151
same,glycan array binding signal (z-score),[13],-0.185
same,glycan array binding signal (z-score),GlcNAc(b1-3)GalNAc,-0.035
same,glycan array binding signal (z-score),GlcNAc(b1-3)Man,-0.163
same,glycan array binding signal (z-score),[14],-0.02
same,glycan array binding signal (z-score),[15],-0.228
same,glycan array binding signal (z-score),[16],-0.17
same,glycan array binding signal (z-score),[17],-0.095
same,glycan array binding signal (z-score),GlcNAc(b1-4)GlcNAc,-0.098
same,glycan array binding signal (z-score),[18],-0.131
same,glycan array binding signal (z-score),[19],-0.173
same,glycan array binding signal (z-score),[20],-0.065
